Measurements as given in patent publication US10696615B2, “Prenylated hydroxystilbenes” (The University of Sydney, priority 2011, dated 2020).

System: 14 bacterial strains (11 ATCC strains and 3 clinical isolates)
Assay: MIC screening, broth microdilution (CLSI)
Type: cell-based
Conditions: for antibacterial activities: result in words
Excerpt: C. […] C. […] 2.5. […] 2.6. […] C. […] 3. Results 3.1. MIC Summary Table

Structure (SMILES) | rank of potency (MIC) | antibacterial activities
COc1cc(/C=C/c2cc(O)cc(OC)c2CC=C(C)C)ccc1O [USYDS1, (E)-2-(3-methyl-2-buten-1-yl)-4′,5-dihydroxy-3,3′-dimethoxystilbene] | USYDS1>USYDS2>ethanolic extract of propolis | moderate antibacterial activities
COc1cc(/C=C/c2cc(O)cc(OCC=C(C)C)c2)ccc1O [USYDS2, (E)-3-(3-methyl-2-butenyloxy)-4′,5-dihydroxy-3′-methoxystilbene] | USYDS1>USYDS2>ethanolic extract of propolis | moderate antibacterial activities
